The values that follow come from paper PMC12820563.

This is one part of the list. The list includes weakly bound sequences.

For the assay, the target named is T1, MBP-FoxP3dN (UniProt Q99JB6).
T1 sequence: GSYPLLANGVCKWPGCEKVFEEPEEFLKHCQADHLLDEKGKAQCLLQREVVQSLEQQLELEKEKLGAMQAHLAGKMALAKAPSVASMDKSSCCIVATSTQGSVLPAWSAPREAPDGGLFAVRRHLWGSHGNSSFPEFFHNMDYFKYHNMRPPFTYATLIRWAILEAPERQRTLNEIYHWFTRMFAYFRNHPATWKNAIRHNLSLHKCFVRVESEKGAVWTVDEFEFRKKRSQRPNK
Description: PD-seq (MBP pull-down with sequencing). As to conditions: 20 mM Tris-HCl pH 7.5, 100 mM NaCl, 1.5 mM MgCl2, 0.4 uM protein, 0.1 uM dsDNA library, 30 min, room temperature, amylose pull-down; high values mean tight binding; double strand, one strand shown.
As to “GATGATTGTTCTCCCAGCTGATGAATTTTATTCGTCGAGTAAACAAATTTTCCTAATCTTTCTGTTCAAGCGCCATCTAC”, the binding signal (RPM ratio (pull-down/input)) is 0.641.
In the case of “GATGATTGTTCTCCCAGCTGATGAATTGATTGCTTCGAGTAAACAAATTTTCCTAATCTTTCTGTTCAAGCGCCATCTAC”, the binding signal (RPM ratio (pull-down/input)) was found to be 1.45.
Turning to “GATGATTGTTCTCCCAGCTGATGAATTTATGTGGTCGAGTAAACAAATTTTCCTAATCTTTCTGTTCAAGCGCCATCTAC”, the binding signal (RPM ratio (pull-down/input)) was found to be 3.21.
With “GATGATTGTTCTCCCAGCTGATGAATTATGGTTGTCGAGTAAACAAATTTTCCTAATCTTTCTGTTCAAGCGCCATCTAC”, the binding signal (RPM ratio (pull-down/input)) is 1.81.
Under “GATGATTGTTCTCCCAGCTGATGAATTAAGGCGCTCGAGTAAACAAATTTTCCTAATCTTTCTGTTCAAGCGCCATCTAC” stands 0.847.
Under “GATGATTGTTCTCCCAGCTGATGAATTAATCCGATCGAGTAAACAAATTTTCCTAATCTTTCTGTTCAAGCGCCATCTAC” stands 0.184; under “GATGATTGTTCTCCCAGCTGATGAATTACGGAAGTCGAGTAAACAAATTTTCCTAATCTTTCTGTTCAAGCGCCATCTAC”, 0.267; under “GATGATTGTTCTCCCAGCTGATGAATTGATGAGCTCGAGTAAACAAATTTTCCTAATCTTTCTGTTCAAGCGCCATCTAC”, 0.366.
With “GATGATTGTTCTCCCAGCTGATGAATTGGCGACGTCGAGTAAACAAATTTTCCTAATCTTTCTGTTCAAGCGCCATCTAC”, the binding signal (RPM ratio (pull-down/input)) came out at 0.41.
Take “GATGATTGTTCTCCCAGCTGATGAATTCAGAGTGTCGAGTAAACAAATTTTCCTAATCTTTCTGTTCAAGCGCCATCTAC”: the binding signal (RPM ratio (pull-down/input)) is 0.958.
In the case of “GATGATTGTTCTCCCAGCTGATGAATTGCTTTTTTCGAGTAAACAAATTTTCCTAATCTTTCTGTTCAAGCGCCATCTAC” it was 1.46; in that of “GATGATTGTTCTCCCAGCTGATGAATTGCTGCGATCGAGTAAACAAATTTTCCTAATCTTTCTGTTCAAGCGCCATCTAC”, 0.776.
For “GATGATTGTTCTCCCAGCTGATGAATTTCTCATCTCGAGTAAACAAATTTTCCTAATCTTTCTGTTCAAGCGCCATCTAC”, the binding signal (RPM ratio (pull-down/input)) was found to be 0.314.
Under “GATGATTGTTCTCCCAGCTGATGAATTCCGCGTATCGAGTAAACAAATTTTCCTAATCTTTCTGTTCAAGCGCCATCTAC” stands 1.46; under “GATGATTGTTCTCCCAGCTGATGAATTACCACGCTCGAGTAAACAAATTTTCCTAATCTTTCTGTTCAAGCGCCATCTAC”, 0.466; under “GATGATTGTTCTCCCAGCTGATGAATTTGGCTTTTCGAGTAAACAAATTTTCCTAATCTTTCTGTTCAAGCGCCATCTAC”, 2.74.
In the case of “GATGATTGTTCTCCCAGCTGATGAATTCTCTGCGTCGAGTAAACAAATTTTCCTAATCTTTCTGTTCAAGCGCCATCTAC” it was 0.356.
Turning to “GATGATTGTTCTCCCAGCTGATGAATTTCTCTCTTCGAGTAAACAAATTTTCCTAATCTTTCTGTTCAAGCGCCATCTAC”, the binding signal (RPM ratio (pull-down/input)) was 0.243.
Under “GATGATTGTTCTCCCAGCTGATGAATTACGAATATCGAGTAAACAAATTTTCCTAATCTTTCTGTTCAAGCGCCATCTAC” stands 0.595; under “GATGATTGTTCTCCCAGCTGATGAATTACTAAAATCGAGTAAACAAATTTTCCTAATCTTTCTGTTCAAGCGCCATCTAC”, 0.262; under “GATGATTGTTCTCCCAGCTGATGAATTTAGCTTCTCGAGTAAACAAATTTTCCTAATCTTTCTGTTCAAGCGCCATCTAC”, 2.24.
Consider “GATGATTGTTCTCCCAGCTGATGAATTTTCCAGGTCGAGTAAACAAATTTTCCTAATCTTTCTGTTCAAGCGCCATCTAC”, for which the binding signal (RPM ratio (pull-down/input)) was found to be 0.146.
On to “GATGATTGTTCTCCCAGCTGATGAATTACCGGTGTCGAGTAAACAAATTTTCCTAATCTTTCTGTTCAAGCGCCATCTAC”, for which the binding signal (RPM ratio (pull-down/input)) amounted to 0.434.
For “GATGATTGTTCTCCCAGCTGATGAATTGATGATGTCGAGTAAACAAATTTTCCTAATCTTTCTGTTCAAGCGCCATCTAC”, the binding signal (RPM ratio (pull-down/input)) was 1.
For the sequence “GATGATTGTTCTCCCAGCTGATGAATTATCGACATCGAGTAAACAAATTTTCCTAATCTTTCTGTTCAAGCGCCATCTAC”, the binding signal (RPM ratio (pull-down/input)) was determined as 0.53.
Under “GATGATTGTTCTCCCAGCTGATGAATTAGTGTATTCGAGTAAACAAATTTTCCTAATCTTTCTGTTCAAGCGCCATCTAC” stands 4.22; under “GATGATTGTTCTCCCAGCTGATGAATTGGACGTGTCGAGTAAACAAATTTTCCTAATCTTTCTGTTCAAGCGCCATCTAC”, 0.465.
In the case of “GATGATTGTTCTCCCAGCTGATGAATTCTTCCTTTCGAGTAAACAAATTTTCCTAATCTTTCTGTTCAAGCGCCATCTAC” it was 0.205; in that of “GATGATTGTTCTCCCAGCTGATGAATTATTTTTTTCGAGTAAACAAATTTTCCTAATCTTTCTGTTCAAGCGCCATCTAC”, 0.916.
Regarding “GATGATTGTTCTCCCAGCTGATGAATTAGGATTATCGAGTAAACAAATTTTCCTAATCTTTCTGTTCAAGCGCCATCTAC”, the binding signal (RPM ratio (pull-down/input)) came out at 0.765.
Under “GATGATTGTTCTCCCAGCTGATGAATTGGAAAACTCGAGTAAACAAATTTTCCTAATCTTTCTGTTCAAGCGCCATCTAC” stands 0.225; under “GATGATTGTTCTCCCAGCTGATGAATTGAACAAGTCGAGTAAACAAATTTTCCTAATCTTTCTGTTCAAGCGCCATCTAC”, 0.211; under “GATGATTGTTCTCCCAGCTGATGAATTGCATCGTTCGAGTAAACAAATTTTCCTAATCTTTCTGTTCAAGCGCCATCTAC”, 2.81.
Regarding “GATGATTGTTCTCCCAGCTGATGAATTTTAAGACTCGAGTAAACAAATTTTCCTAATCTTTCTGTTCAAGCGCCATCTAC”, the binding signal (RPM ratio (pull-down/input)) was 0.275.
In the case of “GATGATTGTTCTCCCAGCTGATGAATTTACGATTTCGAGTAAACAAATTTTCCTAATCTTTCTGTTCAAGCGCCATCTAC” it was 0.566; in that of “GATGATTGTTCTCCCAGCTGATGAATTGCCTTAGTCGAGTAAACAAATTTTCCTAATCTTTCTGTTCAAGCGCCATCTAC”, 0.544; in that of “GATGATTGTTCTCCCAGCTGATGAATTGTACACGTCGAGTAAACAAATTTTCCTAATCTTTCTGTTCAAGCGCCATCTAC”, 0.656.
For “GATGATTGTTCTCCCAGCTGATGAATTACCCAATTCGAGTAAACAAATTTTCCTAATCTTTCTGTTCAAGCGCCATCTAC”, the binding signal (RPM ratio (pull-down/input)) worked out at 0.295.
Under “GATGATTGTTCTCCCAGCTGATGAATTACGCTGTTCGAGTAAACAAATTTTCCTAATCTTTCTGTTCAAGCGCCATCTAC” stands 1.09.
In the case of “GATGATTGTTCTCCCAGCTGATGAATTTACCATTTCGAGTAAACAAATTTTCCTAATCTTTCTGTTCAAGCGCCATCTAC” it was 0.541; in that of “GATGATTGTTCTCCCAGCTGATGAATTTGATAGGTCGAGTAAACAAATTTTCCTAATCTTTCTGTTCAAGCGCCATCTAC”, 1.41.
Under “GATGATTGTTCTCCCAGCTGATGAATTCACAAGGTCGAGTAAACAAATTTTCCTAATCTTTCTGTTCAAGCGCCATCTAC” stands 0.221; under “GATGATTGTTCTCCCAGCTGATGAATTGGTATTATCGAGTAAACAAATTTTCCTAATCTTTCTGTTCAAGCGCCATCTAC”, 1.58.
Regarding “GATGATTGTTCTCCCAGCTGATGAATTGCCGATCTCGAGTAAACAAATTTTCCTAATCTTTCTGTTCAAGCGCCATCTAC”, the binding signal (RPM ratio (pull-down/input)) was 0.528.
For the sequence “GATGATTGTTCTCCCAGCTGATGAATTTATTCCTTCGAGTAAACAAATTTTCCTAATCTTTCTGTTCAAGCGCCATCTAC”, the binding signal (RPM ratio (pull-down/input)) was 0.63.
In the case of “GATGATTGTTCTCCCAGCTGATGAATTTTAGCGTTCGAGTAAACAAATTTTCCTAATCTTTCTGTTCAAGCGCCATCTAC” it was 1.49; in that of “GATGATTGTTCTCCCAGCTGATGAATTCTATCCTTCGAGTAAACAAATTTTCCTAATCTTTCTGTTCAAGCGCCATCTAC”, 0.391.
As to “GATGATTGTTCTCCCAGCTGATGAATTCGATGCGTCGAGTAAACAAATTTTCCTAATCTTTCTGTTCAAGCGCCATCTAC”, the binding signal (RPM ratio (pull-down/input)) came to 1.84.
Regarding “GATGATTGTTCTCCCAGCTGATGAATTTATCGCTTCGAGTAAACAAATTTTCCTAATCTTTCTGTTCAAGCGCCATCTAC”, the binding signal (RPM ratio (pull-down/input)) turned out to be 1.15.
In the case of “GATGATTGTTCTCCCAGCTGATGAATTCTACGTCTCGAGTAAACAAATTTTCCTAATCTTTCTGTTCAAGCGCCATCTAC” it was 0.387; in that of “GATGATTGTTCTCCCAGCTGATGAATTCTATGGTTCGAGTAAACAAATTTTCCTAATCTTTCTGTTCAAGCGCCATCTAC”, 1.16.
In the case of “GATGATTGTTCTCCCAGCTGATGAATTGGAGCTTTCGAGTAAACAAATTTTCCTAATCTTTCTGTTCAAGCGCCATCTAC” it was 0.738; in that of “GATGATTGTTCTCCCAGCTGATGAATTGTCGGAGTCGAGTAAACAAATTTTCCTAATCTTTCTGTTCAAGCGCCATCTAC”, 0.253.
As to “GATGATTGTTCTCCCAGCTGATGAATTGCATTTCTCGAGTAAACAAATTTTCCTAATCTTTCTGTTCAAGCGCCATCTAC”, the binding signal (RPM ratio (pull-down/input)) was determined as 2.75.
Regarding “GATGATTGTTCTCCCAGCTGATGAATTGTGGAGGTCGAGTAAACAAATTTTCCTAATCTTTCTGTTCAAGCGCCATCTAC”, the binding signal (RPM ratio (pull-down/input)) worked out at 0.312.
Under “GATGATTGTTCTCCCAGCTGATGAATTGGACGCGTCGAGTAAACAAATTTTCCTAATCTTTCTGTTCAAGCGCCATCTAC” stands 0.629; under “GATGATTGTTCTCCCAGCTGATGAATTGTGGCGTTCGAGTAAACAAATTTTCCTAATCTTTCTGTTCAAGCGCCATCTAC”, 2.54.
In the case of “GATGATTGTTCTCCCAGCTGATGAATTGACGGCGTCGAGTAAACAAATTTTCCTAATCTTTCTGTTCAAGCGCCATCTAC” it was 0.508.
Regarding “GATGATTGTTCTCCCAGCTGATGAATTATCACACTCGAGTAAACAAATTTTCCTAATCTTTCTGTTCAAGCGCCATCTAC”, the binding signal (RPM ratio (pull-down/input)) is 0.454.
In the case of “GATGATTGTTCTCCCAGCTGATGAATTAATGCCGTCGAGTAAACAAATTTTCCTAATCTTTCTGTTCAAGCGCCATCTAC”, the binding signal (RPM ratio (pull-down/input)) was 1.5.
Under “GATGATTGTTCTCCCAGCTGATGAATTGCTACACTCGAGTAAACAAATTTTCCTAATCTTTCTGTTCAAGCGCCATCTAC” stands 0.867.
Under “GATGATTGTTCTCCCAGCTGATGAATTCCCTCTCTCGAGTAAACAAATTTTCCTAATCTTTCTGTTCAAGCGCCATCTAC” stands 0.275; under “GATGATTGTTCTCCCAGCTGATGAATTCCAACGCTCGAGTAAACAAATTTTCCTAATCTTTCTGTTCAAGCGCCATCTAC”, 0.274.
